Test results: PMC4336329 (PLoS ONE, 2015)
Out of some 310,000 compounds screened, about 2,200 (0.71%) showed an effect of 50% or more. Effects have a minus sign here. The list shows a part of the results.

The compounds below were run against human ether-à-go-go-related gene (hERG) potassium channel (human, UniProt Q12809) (assay: primary screen, population patch clamp on CHO cells stably expressing hERG).
human ether-à-go-go-related gene (hERG) potassium channel, sequence (Q12809 whole entry, looked up): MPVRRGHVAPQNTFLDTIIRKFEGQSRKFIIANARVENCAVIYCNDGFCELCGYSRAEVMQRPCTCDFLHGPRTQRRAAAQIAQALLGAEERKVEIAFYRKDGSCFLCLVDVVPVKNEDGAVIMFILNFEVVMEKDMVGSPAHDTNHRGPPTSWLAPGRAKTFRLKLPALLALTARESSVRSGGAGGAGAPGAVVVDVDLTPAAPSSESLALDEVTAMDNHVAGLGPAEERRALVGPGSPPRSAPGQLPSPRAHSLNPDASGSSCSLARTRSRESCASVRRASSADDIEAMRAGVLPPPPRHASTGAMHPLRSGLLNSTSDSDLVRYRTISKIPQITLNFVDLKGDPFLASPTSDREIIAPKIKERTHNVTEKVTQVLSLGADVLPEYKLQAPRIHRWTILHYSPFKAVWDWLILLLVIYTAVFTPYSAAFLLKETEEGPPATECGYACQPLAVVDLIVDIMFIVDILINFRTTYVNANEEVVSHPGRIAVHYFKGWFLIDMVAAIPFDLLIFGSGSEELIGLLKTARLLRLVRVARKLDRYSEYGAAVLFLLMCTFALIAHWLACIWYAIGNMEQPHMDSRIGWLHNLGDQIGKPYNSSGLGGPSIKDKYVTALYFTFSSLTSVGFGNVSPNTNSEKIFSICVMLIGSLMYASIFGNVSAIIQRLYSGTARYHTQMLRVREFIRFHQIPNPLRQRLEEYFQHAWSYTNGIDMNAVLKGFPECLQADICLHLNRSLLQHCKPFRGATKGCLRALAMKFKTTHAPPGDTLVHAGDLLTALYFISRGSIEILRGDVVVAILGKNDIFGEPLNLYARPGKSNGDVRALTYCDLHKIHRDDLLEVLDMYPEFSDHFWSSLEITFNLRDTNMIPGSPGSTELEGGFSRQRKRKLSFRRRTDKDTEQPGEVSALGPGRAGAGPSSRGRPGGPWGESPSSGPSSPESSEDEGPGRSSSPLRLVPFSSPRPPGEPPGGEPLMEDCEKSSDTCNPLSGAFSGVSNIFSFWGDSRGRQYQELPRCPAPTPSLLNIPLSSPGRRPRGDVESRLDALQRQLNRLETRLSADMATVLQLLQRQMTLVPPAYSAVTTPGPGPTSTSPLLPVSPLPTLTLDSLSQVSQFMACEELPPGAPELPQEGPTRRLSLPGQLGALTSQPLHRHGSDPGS

| SMILES | hERG current change (%, negative = inhibition) at 1uM |
| --- | --- |
| CCOc1ccc2nc(NC(=O)COc3ccc(N(C)S(=O)(=O)c4ccc(C)cc4)cc3)sc2c1 | 18% |
| O=C(NCc1ccco1)c1cccc(S(=O)(=O)N2CCOCC2)c1 | -3.55% |
| CC1CC(C)CN(C(=O)CCNC(=O)Cn2cnc3ccccc3c2=O)C1 (stereo not shown) | 18.3% |
| Nc1c(Sc2ccccc2)c(=O)[nH]c(=O)n1Cc1ccccc1 | -13.3% |
| COc1ccc2c(Cl)c(-c3nnc(SCC(N)=O)n3C)sc2c1 | 15.5% |
| CC(C)C(NC(=O)CCNC(=O)c1ccc(C(C)(C)C)cc1)c1nc2ccccc2[nH]1 (stereo not shown) | 8.67% |
| CC(C)(C)CC(=O)N[C@@H](Cc1ccccc1)c1nc2ccccc2[nH]1 | 16.2% |
| O=C(Nc1cnc2ccccn2c1=O)c1ccc(Cl)cc1Cl | 13.9% |
| CN(C)CCNC(=O)Nc1cccc(Cl)c1Cl | -1.43% |
| N=C1C(=O)OCC1c1ccccc1NC(=O)CN1CCOCC1 (stereo not shown) | 17.5% |
| Cc1nn(C)c(C)c1S(=O)(=O)N1CCC(C(=O)NCCC2=CCCCC2)CC1 | 7.39% |
| CCCCC(CC)C(=O)NCC(C)NC(=O)C(CC)CCCC (stereo not shown) | 1.69% |
| CC1=Nc2cccc3cccc(c23)N1 | 6.9% |
| O=C(Cc1cnc2ncnn2c1)N1CCc2c([nH]c3ccccc23)C1c1ccccc1F (stereo not shown) | 14.4% |
| Cc1nc2ccc(S(=O)(=O)Nc3cc(-c4nc5cccnc5s4)ccc3C)cc2s1 | 4.41% |
| COC(=O)c1cc(NC(=O)CN2C(=O)CSC2=O)ccc1Cl | 4.34% |
| COCCn1c(SCC(=O)Nc2cc(C)on2)nc2cc(Cl)ccc2c1=O | 4.54% |
| O=C(O)c1cc(-c2ccccc2)n(-c2ccc(F)cc2)n1 | 12.5% |
| COc1cc(-c2nc(C(=O)NC3CCCCC3)cc3c2[nH]c2ccccc23)cc(OC)c1OC | 1.26% |
| COc1ccc(Cn2nnc(C(=O)Nc3ccc(F)cc3)c2N)cc1 | -1.13% |
| COc1ccc(CCNC(=O)CCn2c(SCC(=O)N3CCCC3)nc3ccccc3c2=O)cc1OC | 12.9% |
| CCc1nnc(NC(=O)C2(C)COC(c3ccc(OC)cc3)OC2)s1 (stereo not shown) | 10.9% |

| SMILES | hERG current change (%, negative = inhibition) at 1uM |
| --- | --- |
| CCC(=O)c1ccc(OC(=O)C2CCN(C3=NS(=O)(=O)c4ccccc43)CC2)cc1 | 8.47% |
| Cc1nc(SCC(=O)Nc2nc3ccccc3s2)c(C#N)c(C)c1C | 13.5% |
| COc1ncnc2sc(-c3ccccc3)cc12 | 11% |
| CCCC(=O)Nc1nc(C(=O)OCC)cs1 | 16% |
| CCC(CC)C(=O)Nc1ccc(-c2cn3cccnc3n2)cc1 | 11.4% |
| CCCOc1cccc(C(=O)N(Cc2ccc(OC)c(OC)c2)C2CCS(=O)(=O)C2)c1 (stereo not shown) | 7.08% |
| Cc1onc(-c2ccccc2)c1-c1nnc(CN2CCN(S(=O)(=O)c3ccccc3)CC2)o1 | 5.85% |
| CC(=O)Oc1ccccc1C(=O)Nc1ccccc1 | 12.8% |
| CCCn1c(SCC(=O)Nc2cccc(C)n2)nnc1C(C)C | 14.5% |
| Cc1cc(Cl)c(OCCCCN2CCOCC2)c(Br)c1 | 4.92% |
| CC(C)=CC(=O)N1CCC(n2nccc2NC(=O)CCc2ccccc2)CC1 | 18.3% |
| CCOC(=O)CCCc1c[nH]c2ccccc12 | 5.54% |
| COc1cc(Br)c(C2C(C#N)=C(N)Oc3n[nH]c(-c4cccnc4)c32)cc1OC (stereo not shown) | 13% |
| Cc1ccccc1C(=O)N/N=C/c1cccc2ccccc12 | 11.7% |
| O=C(CSc1nnc(-c2cccs2)n1-c1ccccc1)NCc1ccc2c(c1)OCO2 | -33.8% |
| CCOC(=O)c1c(-c2cccs2)csc1NC(=O)c1ccco1 | 6.7% |
| COC(=O)c1cn(NC(=O)/C=C/c2ccc(OC)c(OC)c2)c(=O)c2ccccc12 | 2.74% |
| Cc1cc(C)n(-c2ccc(C(=O)OCC(=O)Nc3cc(S(C)(=O)=O)ccc3Cl)cc2)n1 | 3.24% |
| Cc1oc(-c2ccccc2)cc1C(=O)Nc1ccc(N(C)C)cc1 | 13.4% |
| O=c1c2sccc2[nH]c(=S)n1Cc1ccccc1 | 12.3% |
| O=C(c1cc2cc([N+](=O)[O-])ccc2s1)N1CCOCC1 | 3.8% |
| CCCc1cc(=O)oc2cc(OCC(=O)N(C)C)c(Cl)cc12 | 14% |

| SMILES | hERG current change (%, negative = inhibition) at 1uM |
| --- | --- |
| COc1ccc(Br)cc1C(=O)Nc1cccc2ncccc12 | 15.9% |
| CCN1CCN(C(c2cccs2)C(C)NS(=O)(=O)c2ccc(C)cc2)CC1 (stereo not shown) | 15.6% |
| COc1cccc(CNC(=O)C23CN(Cc4ccccc4)CC2C(c2ccc([N+](=O)[O-])cc2)=NO3)c1 (stereo not shown) | -0.219% |
| Cc1cc(F)ccc1S(=O)(=O)N1CCCOC1CNC(=O)C(=O)NCCc1c[nH]c2ccccc12 (stereo not shown) | 6.65% |
| CC1CN=C(NCc2ccccc2Cl)S1 (stereo not shown) | 12.4% |
| CCN1C(=O)[C@H]2[C@@H](c3ccc(-c4ccc(C(C)=O)cc4)c(OC)c3)N[C@@](Cc3ccccc3)(C(=O)OC)[C@H]2C1=O.O=C(O)C(F)(F)F | 12.1% |
| O=C(CC1C(=O)NCCN1Cc1ccc(-c2ccccc2)cc1)NCc1ccncc1 (stereo not shown) | 6.26% |
| COC(=O)[C@@H]1C[C@@H]2CC[C@@H](O)C[C@@H]2N1Cc1ccc(Cl)cc1 | 25.7% |
| N#C/C(=C\c1ccc([N+](=O)[O-])o1)c1nc2ccccc2[nH]1 | 11.5% |
| O=C(NCCN1C(=O)S/C(=C\c2ccccc2F)C1=O)C1CC(=O)N(Cc2ccccc2)C1 (stereo not shown) | 6.55% |
| O=C1Nc2ccccc2N(O)N1c1ccc(Cl)c(Cl)c1 | 13.3% |
| Cc1ccc(C(=O)CSc2nnc3n2CCCCC3)s1 | 5.62% |
| CCC(C)(C)NC(=O)C(c1cccs1)N(CC1CCCO1)C(=O)Cn1nnc2ccccc21 (stereo not shown) | 9.67% |
| CC(CC(=O)N(CCC1=CCCCC1)c1c(N)n(Cc2ccccc2)c(=O)[nH]c1=O)c1ccccc1 (stereo not shown) | 15.4% |
| Cc1ccccc1COCCN1CCN(S(=O)(=O)c2ccccc2)CCC1=O | 8.86% |
| O=C(CCN1C(=O)/C(=C/c2ccccc2F)SC1=S)N[C@@H](CO)Cc1ccccc1 | 6.24% |
| CCCCCCC1CC(C)(C(=O)C[NH2+]c2nncs2)OC1=O.[Br-] (stereo not shown) | -32.3% |
| O=C(NCCc1ccc(F)cc1)c1cc(=O)c2ccccc2o1 | 7.95% |
| Nc1nccnc1C(=O)OCC(=O)NCCc1ccc(S(N)(=O)=O)cc1 | 12.7% |
| COc1ccc(OC)c(-c2csc3nnc(SCC(=O)Nc4ccc(NC(C)=O)cc4)n23)c1 | -2.97% |
| CCOC(=O)c1ccc(N=Nc2c(C)[nH]n(-c3ccccc3)c2=O)cc1 | 13.7% |
| C=C(C)Cn1c(C(C)NC(=O)CCC)nc2ccccc21 (stereo not shown) | 15.8% |

| SMILES | hERG current change (%, negative = inhibition) at 1uM |
| --- | --- |
| C/C(=N\NC(=O)c1cccc(S(=O)(=O)Nc2cccc(Cl)c2)c1)c1cccs1 | 5.82% |
| Cc1ccc(C2=NN(C)c3nc4ccccc4n3C2)cc1 | 7.06% |
| Cn1cc(CN2CCCCC2C(=O)Nc2ccc(-n3cccn3)cc2)cn1 (stereo not shown) | 20.2% |
| CCCN(CCC)C(=O)CSc1nc2c(sc(=S)n2-c2ccc(OCC)cc2)c(=O)[nH]1 | 2.53% |
| Cc1cccc(N2CCN(C(=O)CCC(=O)N3CC(C)Oc4ccccc43)CC2)c1C (stereo not shown) | 1.87% |
| O=C(O)C(=O)O.Oc1ccccc1NCC(O)Cn1ccc2ccccc21 (stereo not shown) | 19% |
| Cc1cccc(N2CCN(C(=O)NCc3ccc(F)cc3)CC2)c1C | -1.23% |
| CCOC(=O)NCc1ccc(S(=O)(=O)Nc2ccccc2C)cc1 | -22.2% |
| Cn1cc(C(=O)C(=O)N2CCN(c3ccccc3)CC2)c2ccccc21 | 6.8% |
| CCC1(C)CC(CCN(Cc2ccco2)C(C)=O)(c2ccccc2)CCO1 (stereo not shown) | 7.64% |
| C=C(C)Cn1cnc2cc(C)c(C)cc21 | 1.98% |
| CCOc1ccc(-c2nnc3ccc(SC)nn23)cc1 | 1.91% |
| CCN(CC)S(=O)(=O)c1ccc(OC)c(NC(=O)c2cccs2)c1 | 16.6% |
| COC(=O)C1=CO[C@@H](O)C2C(CO)=CCC12 (stereo partly shown) | 14.5% |
| O=C(CC1S/C(=N/N=C/c2ccco2)NC1=O)Nc1ccccc1 (stereo not shown) | 14.3% |
| CCC(=O)NCC(c1cccs1)N1CCOCC1.Cl (stereo not shown) | 14.4% |
| CC(C)(C)c1ccc(-c2nnc(SCCN3C(=O)c4ccccc4C3=O)o2)cc1 | 19.1% |
| CCOCCCNC(=O)C(Cc1ccccc1)NC(=O)c1ccco1 (stereo not shown) | 4.07% |
| Cc1cccc2nc(C(F)(F)F)nc(=O)n12 | 13.7% |
| Cc1c(CCO)c(=O)[nH]n1S(=O)(=O)c1cccc(C(F)(F)F)c1 | 7.76% |
| Cc1ccc(C(=O)NCCCNC(=O)c2ccc(Cl)cc2)cn1 | 8.86% |
| CC(O)c1nc2cc([N+](=O)[O-])ccc2n1Cc1ccccc1 (stereo not shown) | 11.7% |
